Measurements published in PMC5515408.
The list shows a part of the results. At the low end of the ranking the order means little.

Each sequence was assayed against MAX:MAX (p21) (UniProt P61244-2) (assay: protein-binding microarray (anti-MAX antibody)). Conditions: PBM: 15 mM Tris-HCl pH 7.5, 100 mM KCl, 0.075% NP40, 7.5 mM beta-mercaptoethanol, 375 ng/ul BSA, 8 ng/ul poly(dA-dT):(dA-dT), 550 ng complex, 60 min, room …; high values mean tight binding; double strand, one strand shown; sequences stand for … in CCGGC…TTAATAGCTAAGATTACTATATCGACG.

| Sequence | binding signal (log2 normalized fluorescence) |
| --- | --- |
| TGACCGTTTGTA | -0.528 |
| TGATCATATGTA | 1.98 |
| TGACATCTGGTA | 0.652 |
| TGATTTCCTGTA | -1.13 |
| TCTAACGTGGTA | 2.94 |
| TGAAAGTTTGTA | -0.749 |
| TGACACGGAATA | 0.766 |
| TGACGCACAGTA | 0.339 |
| TGAATAAGGGTA | -0.853 |
| TGAGCGCGCGTA | 0.952 |
| ATTTACAAAGCA | 0.561 |
| TGAAGTCCAGTA | -0.519 |
| TGACGATTCGTA | -0.779 |
| TGAGGTCCAGTA | -0.896 |
| TGAAATGTGGTA | 1.55 |
| TTACACGTGCTA | 3.57 |
| TGATTGAAAGTA | -0.975 |
| TGATATGTTGTA | -0.671 |
| TGAAGCCTGGTA | 0.476 |
| TGACCTTACGTA | -0.175 |
| TGACCGTTCGTA | -0.456 |
| TGATCGGTAGTA | -0.841 |
| TGACACGTTAAA | 2.15 |
| TGATCTTGTGTA | -0.098 |
| TGACGGGGAGTA | -0.0998 |

| Sequence | binding signal (log2 normalized fluorescence) |
| --- | --- |
| TGATAGTTCGTA | -1.05 |
| TGACCTGAAGTA | -0.283 |
| TGAAGGTGTGTA | 0.672 |
| TGACGGCATGTA | 2.78 |
| TGACACGTCTTG | 1.14 |
| TGATAGTTTGTA | -1.12 |
| TGCCACGCGGAA | 3.15 |
| TGATGCTTAGTA | -0.252 |
| TGATGTAACGTA | -0.0372 |
| TGAGACGTGGTA | 1.31 |
| TGAGTCGAGGTA | -0.576 |
| TGATAAACGGTA | -0.892 |
| TGAAAGATCGTA | -0.72 |
| TGATGATCTGTA | -0.226 |
| TGAAGAAGGGTA | -0.89 |
| TGAAGTTATGTA | -0.594 |
| TGATATGACGTA | -0.457 |
| TGACATGCAGTA | 2.07 |
| TGTACCGTGGTA | 1.7 |
| TGGCACTTGGTT | -0.0227 |
| TGATGTAATGTA | -0.17 |
| TGAAACTGGGTA | -0.857 |
| TGAACAGTCGTA | -0.545 |
| TGACTTCCGGTA | -0.852 |
| TGCCACGAGGAA | 3.34 |

| Sequence | binding signal (log2 normalized fluorescence) |
| --- | --- |
| TGAAACAGTGTA | -0.473 |
| TGAATCACAGTA | -0.379 |
| TGACCAGGTGTA | 1.54 |
| TGATATAGAGTA | -0.807 |
| TGAGCGCTGGTA | -0.393 |
| TGACAATTCGTA | -0.375 |
| TGAGTATCTGTA | -1.18 |
| TGAATATCAGTA | -0.969 |
| TGACTGGGAGTA | -0.653 |
| TGATCTCTAGTA | -1.13 |
| TGAGCTTCAGTA | -0.854 |
| TGAATCAGAGTA | -0.19 |
| TGACTATTGGTA | -0.947 |
| TGATACGCGGTA | -0.535 |
| TGATTGGGCGTA | -0.9 |
| TGAAATAAGGTA | -0.429 |
| TGAGCAAAGGTA | -0.975 |
| TGACATGCTGTA | 2.75 |
| TGACACGTACTA | 1.24 |
| TGAAGCACAGTA | -0.0754 |
| TGATCGCTCGTA | -0.768 |
| TGAGTATAAGTA | -1.2 |
| TGACTCAAAGTA | -0.826 |
| TGAACCAATGTA | -0.385 |
| TGACGCATTGTA | 1.29 |

| Sequence | binding signal (log2 normalized fluorescence) |
| --- | --- |
| TGAGACCACGTA | 0.49 |
| TGAGGCTACGTA | -1.2 |
| AGATACGTGGTA | 1.61 |
| TGAATAACAGTA | -0.765 |
| TGATGTATGGTA | 0.355 |
| TGACATGTGGAA | 3.11 |
| TGACACGTGAAT | 3.14 |
| TGAGACCGGGTA | -0.913 |
| TGAACACAGGTA | 0.6 |
| TGAGGTAATGTA | -0.585 |
| TGATCTCGGGTA | -0.679 |
| TGAGTTAGCGTA | -0.884 |
| TGATCGTTTGTA | -0.662 |
| TTAAACGTGGTA | 2.95 |
| TGACAGCCCGTA | 0.24 |
| TGAAGAAATGTA | -0.639 |
| TGAGCATATGTA | 1.65 |
| TGCCGCGTGTTA | 2.98 |
| TGATGGGTTGTA | -0.142 |
| CCCCACGTGGTA | 3.4 |
| TGATATTTGGTA | -1.42 |
| TGACGCGCTGTA | 0.832 |
| TGATTTAATGTA | -0.78 |
| TCCCACCTGGTA | 2.61 |
| TGACCCGTTGTA | 0.101 |

| Sequence | binding signal (log2 normalized fluorescence) |
| --- | --- |
| TGTCACGTTGTA | 3.16 |
| TGACACGTGAGA | 3.29 |
| TGACCAGATGTA | 0.615 |
| TGAGATGCCGTA | -0.54 |
| TAACACCTGGCA | 2.87 |
| TGATGTGCGGTA | 0.443 |
| TGCGGCGTGGTA | 2.97 |
| TGAACAAGAGTA | -0.616 |
| TGAGGCGTCGTA | -0.641 |
| TGAAAATGTGTA | 1.14 |
| TGATTGGGTGTA | -0.803 |
| TGAGCCATAGTA | -1.04 |
| TGACGCCCGGTA | -0.0843 |
| TGACTTGATGTA | -0.32 |
| TGAAATGGTGTA | -0.154 |
| TGAGTGGTCGTA | 0.559 |
| TGAGATATAGTA | -0.876 |
| TGATCGGACGTA | -0.968 |
| TGACATAACGTA | 0.0875 |
| TGAAAGAGAGTA | -0.838 |
| TCACACGTGATA | 3.31 |
| TGAGTGGTAGTA | 0.0367 |
| TGAACATAAGTA | 0.21 |
| TGAAGATTTGTA | -1.05 |
| CGGCAAGTGGTA | 1.17 |

| Sequence | binding signal (log2 normalized fluorescence) |
| --- | --- |
| TCACACTCGGTA | 1.6 |
| TGAAATAGCGTA | -0.767 |
| TGAGTCAGCGTA | -0.508 |
| TGATTGACTGTA | -0.701 |
| TGACGGTCTGTA | -0.396 |
| TGATACGAGGTG | -0.118 |
| TGATTATAAGTA | -1.18 |
| TGACACTTGTTA | 0.48 |
| TGAGCCCGTGTA | 0.977 |
| TGAACTAAGGTA | -0.746 |
| TGATATTAAGTA | -1.18 |
| TGAGTCGATGTA | -0.987 |
| TGATGACGTGTA | 0.657 |
| TGAGTGCAGGTA | 0.133 |
| TGACCTTAGGTA | -0.553 |
| TGAGTAGCTGTA | -1.01 |
| TCACACGTAGGA | 2.38 |
| TAGTACGTGGTA | 1.19 |
| TGATAGCCGGTA | -0.991 |
| TGAAGTCAAGTA | -0.736 |
| ATAGCTAAGATT | -0.556 |
| TGACCCCCTGTA | 0.861 |
| CGACACGTGGGC | 3.29 |
| TGATGATCCGTA | -0.123 |
| TGAGGACACGTA | 0.341 |

| Sequence | binding signal (log2 normalized fluorescence) |
| --- | --- |
| TGATTGTCCGTA | -0.74 |
| TGAAACTCGGTA | -0.697 |
| TGACATTGAGTA | -0.354 |
| TGATACCAGGTA | -0.589 |
| TGAGTCGTTGTA | -0.979 |
| TGACCTGATGTA | 0.381 |
| TGAACGGATGTA | -0.184 |
| TGACTCCCTGTA | -0.355 |
| GGAGAAGTGGTA | -0.423 |
| CGGCACGTTGTA | 3.21 |
| TGATTGTACGTA | -0.688 |
| TGATATTCAGTA | -0.946 |
| TGATGATTAGTA | -0.556 |
| TGAGCTACGGTA | -1.01 |
| TGAATGGACGTA | 0.398 |
| TGACTGACCGTA | -0.313 |
| TGAGTCTTTGTA | -1.22 |
| TGATAACGTGTA | 2.18 |
| TGACCGAGGGTA | -0.167 |
| TGAGTTATGGTA | -0.847 |
| TGACCCGTGTTA | 2.22 |
| TGACCCGTCGTA | -0.382 |
| TGACCTAGCGTA | -0.52 |
| AGTAGGGTTGAC | 0.441 |
| TGATGCCAGGTA | -0.0326 |
